Assay results: the supplement of paper PMC12217912
Some of the results follow. The full chains were built here from the parent and the listed change. Values near 0.05 are background.

B1: TEV protease; numbered along this chain (parent)
chain: MGESLFKGPRDYNPISSSICHLTNESDGHTTSLYGIGFGPFIITNKHLFRRNNGTLVVQSLHGVFKVKDTTTLQQHLVDGRDMIIIRMPKDFPPFPQKLKFREPQREERICLVTTNFQTKSMSSMVSDTSCTFPSGDGIFWKHWIQTKDGQCGSPLVSTRDGFIVGIHSASNFTNTNNYFTSVPKNFMELLTNQEAQQWVSGWRLNADSVLWGGHKVFMVKPEEPFQPVKEATQL

Variants of: B1
Assay: raw area under fraction-flipped curve 0-4 h after induction (AUC4h, not background-subtracted), DNA-recorder readout of cleavage of the substrate (dimensionless); higher = more cleavage of the substrate by the protease variant
Conditions: temperature: 34 °C; time window: 0-4 h after rhamnose induction
Description: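 In vivo DNA recorder in E. coli TOP10(DE3) ΔrhaA at 34 °C. Each TEVp single-site mutant (parent TEVp 0) is paired with a single-site variant of the 7-mer TEVs (canonical ENLYFQ|S). The substrate sits between flexible linkers in a Bxb1-sfGFP-TEVs-SsrA fusion, so cleavage stabilises Bxb1 and speeds flipping of a recombination array, read by NGS. The value is the raw area under the fraction-flipped curve over 0-4 h after rhamnose induction (AUC4h), with ≥20 reads per time point. It is not background-subtracted; inactive controls average about 0.047.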
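Also: Bxb1 expression induced with 0.2% (w/v) L-rhamnose at OD600 near 0.5, cultures sampled hourly, flipped fraction per protease–substrate barcode pair counted by paired-end Illumina sequencing.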

Variant | area with substrate ENLYFAS | area with substrate ENLYFCS | area with substrate ENLYFFS | area with substrate ENLYFHS | area with substrate ENLYFIS | area with substrate ENLYFKS | area with substrate ENLYFPS | area with substrate ENLYFRS | area with substrate ENLYFSS | area with substrate ENLYFTS | area with substrate ENLYFWS | area with substrate ENLYFYS | area with substrate ENLYFES | area with substrate ENLYFMS | area with substrate ENLYFNS | area with substrate ENLYFDS | area with substrate ENLYFGS | area with substrate ENLYFLS | area with substrate ENLYFVS
MGESLFKGPRDYNPISSSICHLTNESDGHTTSLYGIGFGPFIITNKHLFRRNNGTLVVQSLHGVFKVKDTTTKQQHLVDGRDMIIIRMPKDFPPFPQKLKFREPQREERICLVTTNFQTKSMSSMVSDTSCTFPSGDGIFWKHWIQTKDGQCGSPLVSTRDGFIVGIHSASNFTNTNNYFTSVPKNFMELLTNQEAQQWVSGWRLNADSVLWGGHKVFMVKPEEPFQPVKEATQL [L73K] | 0.0612 | 0.0464 | 0.0611 | 0.0543 | 0.0491 | 0.0426 | 0.0486 | 0.0562 | 0.0655 | 0.0537 | 0.0626 | 0.0365 |  |  |  |  |  |  | 
MGESLFKGPRDYNPISSSICHLTNESDGHTTSLYGIGFGPFIITNKHLFRRNNGTLVVQSLHGVFKVKDTTTHQQHLVDGRDMIIIRMPKDFPPFPQKLKFREPQREERICLVTTNFQTKSMSSMVSDTSCTFPSGDGIFWKHWIQTKDGQCGSPLVSTRDGFIVGIHSASNFTNTNNYFTSVPKNFMELLTNQEAQQWVSGWRLNADSVLWGGHKVFMVKPEEPFQPVKEATQL [L73H] | 0.0623 | 0.0453 |  | 0.0596 | 0.0545 | 0.0613 |  | 0.0507 |  | 0.0185 | 0.046 |  | 0.0465 | 0.0519 | 0.0373 |  |  |  | 
MGESLFKGPRDYNPISSSICHLTNESDGHTTSLYGIGFGPFIITNKHLFRRNNGTLVVQSLHGVFKVKDTKTLQQHLVDGRDMIIIRMPKDFPPFPQKLKFREPQREERICLVTTNFQTKSMSSMVSDTSCTFPSGDGIFWKHWIQTKDGQCGSPLVSTRDGFIVGIHSASNFTNTNNYFTSVPKNFMELLTNQEAQQWVSGWRLNADSVLWGGHKVFMVKPEEPFQPVKEATQL [T71K] | 0.0762 |  | 0.0687 |  | 0.0472 | 0.0667 |  | 0.0628 | 0.0596 |  |  |  | 0.0691 | 0.0777 | 0.0687 | 0.0711 |  |  | 
MGESLFKGPRDYNPISSSICHLTNESDGHTTSLYGIGFGPFIITNKHLFRRNNGTLVVQSLHGVFKVWDTTTLQQHLVDGRDMIIIRMPKDFPPFPQKLKFREPQREERICLVTTNFQTKSMSSMVSDTSCTFPSGDGIFWKHWIQTKDGQCGSPLVSTRDGFIVGIHSASNFTNTNNYFTSVPKNFMELLTNQEAQQWVSGWRLNADSVLWGGHKVFMVKPEEPFQPVKEATQL [K68W] | 0.0637 |  | 0.0609 |  | 0.0615 | 0.0597 | 0.0541 | 0.0576 | 0.0584 | 0.0539 | 0.0394 | 0.0477 | 0.068 | 0.0718 | 0.0668 |  | 0.0375 | 0.0575 | 0.0606
MGESLFKGPRDYNPISSSICHLTNESDGHTTSLYGIGFGPFIITNKHLFRRNNGTLVVQSLHGVFKVPDTTTLQQHLVDGRDMIIIRMPKDFPPFPQKLKFREPQREERICLVTTNFQTKSMSSMVSDTSCTFPSGDGIFWKHWIQTKDGQCGSPLVSTRDGFIVGIHSASNFTNTNNYFTSVPKNFMELLTNQEAQQWVSGWRLNADSVLWGGHKVFMVKPEEPFQPVKEATQL [K68P] | 0.0591 | 0.0658 | 0.065 | 0.062 | 0.0716 |  | 0.0462 |  |  | 0.0618 | 0.0448 |  | 0.0817 | 0.0679 | 0.0695 |  |  |  | 0.0331
MGESLFKGPRDYNPISSSICHLTNESDGHTTSLYGIGFGPFIITNKHLFRRNNGTLVVQSLHGVFKVHDTTTLQQHLVDGRDMIIIRMPKDFPPFPQKLKFREPQREERICLVTTNFQTKSMSSMVSDTSCTFPSGDGIFWKHWIQTKDGQCGSPLVSTRDGFIVGIHSASNFTNTNNYFTSVPKNFMELLTNQEAQQWVSGWRLNADSVLWGGHKVFMVKPEEPFQPVKEATQL [K68H] | 0.0636 | 0.0671 | 0.0581 | 0.0596 | 0.0548 |  | 0.0549 |  | 0.0729 | 0.0638 |  |  | 0.0658 | 0.0923 |  |  |  |  | 
MGESLFKGPRDYNPISSSICHLTNESDGHTTSLYGIGFGPFIITNKHLFRRNNGTLVVQSLHGVFKVKDKTTLQQHLVDGRDMIIIRMPKDFPPFPQKLKFREPQREERICLVTTNFQTKSMSSMVSDTSCTFPSGDGIFWKHWIQTKDGQCGSPLVSTRDGFIVGIHSASNFTNTNNYFTSVPKNFMELLTNQEAQQWVSGWRLNADSVLWGGHKVFMVKPEEPFQPVKEATQL [T70K] | 0.0076 |  |  |  | 0.0489 | 0.0632 |  | 0.0519 |  |  |  |  | 0.0499 |  | 0.0786 |  |  |  | 
MGESLFKGPRDYNPISSSICHLTNESDGHTTSLYGIGFGPFIITNKHLFRRNNGTLVVQSLHGVFKVKDPTTLQQHLVDGRDMIIIRMPKDFPPFPQKLKFREPQREERICLVTTNFQTKSMSSMVSDTSCTFPSGDGIFWKHWIQTKDGQCGSPLVSTRDGFIVGIHSASNFTNTNNYFTSVPKNFMELLTNQEAQQWVSGWRLNADSVLWGGHKVFMVKPEEPFQPVKEATQL [T70P] | 0.0564 | 0.0676 | 0.0704 | 0.0575 | 0.0506 | 0.0661 | 0.0617 | 0.0612 | 0.0796 |  |  |  | 0.0599 | 0.105 |  | 0.0439 |  | 0.0681 | 
MGESLFKGPRDYNPISSSICHLTNESDGHTTSLYGIGFGPFIITNKHLFRRNNGTLVVQSLHGVFKVKDNTTLQQHLVDGRDMIIIRMPKDFPPFPQKLKFREPQREERICLVTTNFQTKSMSSMVSDTSCTFPSGDGIFWKHWIQTKDGQCGSPLVSTRDGFIVGIHSASNFTNTNNYFTSVPKNFMELLTNQEAQQWVSGWRLNADSVLWGGHKVFMVKPEEPFQPVKEATQL [T70N] | 0.0698 |  | 0.0543 |  | 0.0541 |  |  | 0.0625 |  | 0.0635 | 0.0494 |  | 0.0751 | 0.0655 |  |  | 0.0605 |  | 0.0548
MGESLFKGPRDYNPISSSICHLTNESDGHTTSLYGIGFGPFIITNKHLFRRNNGTLVVQSLHGVFKVKYTTTLQQHLVDGRDMIIIRMPKDFPPFPQKLKFREPQREERICLVTTNFQTKSMSSMVSDTSCTFPSGDGIFWKHWIQTKDGQCGSPLVSTRDGFIVGIHSASNFTNTNNYFTSVPKNFMELLTNQEAQQWVSGWRLNADSVLWGGHKVFMVKPEEPFQPVKEATQL [D69Y] | 0.0629 |  |  |  |  | 0.059 | 0.0629 |  |  | 0.061 |  |  | 0.065 | 0.0606 | 0.0593 | 0.0547 |  |  | 
